Measured values taken from the supplement of paper PMC4166925.
± gives the standard deviation of the averaged measurements. Whole data set: some 33,000 sequences, median “E-score (dimensionless, -0.5 to 0.5)” near -0.046, cut for the highest 2% near 0.36. This is one part of the list.

System: T1, SpTbr T-box DNA-binding domain (GST fusion)
T1 sequence: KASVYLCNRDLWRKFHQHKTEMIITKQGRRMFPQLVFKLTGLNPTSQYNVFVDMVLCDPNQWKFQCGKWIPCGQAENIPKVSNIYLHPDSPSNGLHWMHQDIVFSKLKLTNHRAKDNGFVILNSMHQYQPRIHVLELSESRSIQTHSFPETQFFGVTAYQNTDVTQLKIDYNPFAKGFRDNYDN
Assay: PBM E-score of 8-mer (E-score (dimensionless, -0.5 to 0.5)); Tbr is Tbrain of the sea star Patiria miniata (Pm) or the sea urchin Strongylocentrotus purpuratus (Sp); higher = stronger binding preference; most listed sequences are background and not binding sites
Conditions: the construct has about 5 more residues each side
Summary of the method: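 Universal Agilent oligonucleotide arrays, made double-stranded by primer extension, were incubated with 200 nM GST-fused Tbr T-box DNA-binding domain in PBS (pH 7.5). The protein was expressed in BL21 E. coli at 20 °C and purified by glutathione affinity chromatography. After scanning and quantification, the Universal PBM Analysis Suite assigned an enrichment E-score to each ungapped 8-mer, averaged over duplicate arrays.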

Row | Sequence | PBM E-score of 8-mer
1 | ATGACGTC | -0.0941 ± 0.026
2 | AATTGATG | -0.227 ± 0.065
3 | AACAGGTT | 0.285 ± 0.023
4 | AGTTCATG | 0.0961 ± 0.014
5 | CAATCAGC | -0.00392 ± 0.024
6 | CATGCGCC | -0.226 ± 0.0069
7 | CCCAGCGC | 0.0103 ± 0.049
8 | AATTGCAA | 0.112 ± 0.016
9 | ATAACAGA | 0.0616 ± 0.029
10 | ACCGACTG | -0.0985 ± 0.015
11 | AACAAAAC | 0.0715 ± 0.0016
12 | AGGGTTGA | 0.0113 ± 0.017
13 | AAATCCTT | -0.0811 ± 0.024
14 | CACCGGTC | -0.146 ± 0.1
15 | CAGTAGGA | -0.074 ± 0.042
16 | TACCGGCA | -0.169 ± 0.033
17 | AGACCGGG | -0.224 ± 0.05
18 | CTCGAATC | 0.0369 ± 0.033
19 | CCCGGGCA | -0.00186 ± 0.025
20 | AGCGCTAG | 0.214 ± 0.014
21 | CTACCTCA | -0.07 ± 0.025
22 | CATGTCCG | -0.193 ± 0.056
23 | ACGCAAGG | 0.148 ± 0.019
24 | CACACGCG | 0.241 ± 0.057

Row | Sequence | PBM E-score of 8-mer
25 | CCGGACGA | -0.223 ± 0.017
26 | CCTTCAGA | -0.253 ± 0.038
27 | GAGATTCC | -0.0288 ± 0.021
28 | AATCTTCC | -0.133 ± 0.036
29 | ATGTTAGG | -0.129 ± 0.0019
30 | AGAAGTCT | -0.117 ± 0.026
31 | CACAAACA | 0.0857 ± 0.017
32 | CTACATTA | -0.258 ± 0.011
33 | AGAACACC | 0.101 ± 0.0043
34 | CCATTAGA | -0.214 ± 0.039
35 | ATCTAATG | -0.163 ± 0.025
36 | ACACAAGA | -0.0687 ± 0.0099
37 | ATTACGAC | -0.142 ± 0.079
38 | GAGTCCCA | -0.36 ± 0.077
39 | CCCGTTCC | 0.0804 ± 0.0012
40 | AAACTTAA | -0.103 ± 0.0044
41 | AGTTAGGG | -0.209 ± 0.0084
42 | TAGAAAGA | -0.285 ± 0.0039
43 | AATAGGAG | -0.339 ± 0.037
44 | GACGCAGC | -0.0752 ± 0.027
45 | AGAAGCGC | 0.0884 ± 0.0027
46 | AATTGAAG | -0.281 ± 0.037
47 | ACTAGGAG | -0.0309 ± 0.06
48 | ACTCTTAC | -0.0597 ± 0.021

Row | Sequence | PBM E-score of 8-mer
49 | AAGTGTAG | 0.144 ± 0.0052
50 | CGGTCCGA | -0.15 ± 0.019
51 | GTGTACGA | -0.00414 ± 0.036
52 | ACAAGCAC | 0.112 ± 0.036
53 | AAAAAGTG | 0.213 ± 0.073
54 | CCGGTCGC | 0.163 ± 0.012
55 | GCCCAGAC | -0.133 ± 0.029
56 | CCTGAAAA | 0.0275 ± 0.083
57 | ATAGTGAT | -0.019 ± 0.059
58 | AATAAGTA | -0.0666 ± 0.068
59 | AGATTTGA | -0.0264 ± 0.068
60 | GCGCCCTA | 0.0642 ± 0.093
61 | ATCTTTCA | -0.153 ± 0.076
62 | AGTCTTGC | -0.0336 ± 0.016
63 | AGTCCAAC | -0.0297 ± 0.006
64 | GGGGTTCA | -0.015 ± 0.022
65 | AAGCCCTT | -0.113 ± 0.022
66 | CATACCCA | -0.175 ± 0.12
67 | AGGGGACG | -0.173 ± 0.0034
68 | CTGGTTCA | -0.00744 ± 0.012
69 | CGACACTA | 0.324 ± 0.0086
70 | AGAACAAC | -0.0673 ± 0.051
71 | CATTTATA | -0.165 ± 0.021
72 | GCCGTGGA | 0.00788 ± 0.02

Row | Sequence | PBM E-score of 8-mer
73 | CACCGTGC | 0.112 ± 0.019
74 | CCGCGGAA | -0.0697 ± 0.016
75 | CCCGGACC | -0.2265 ± 0.0013
76 | CTACGAAA | -0.0722 ± 0.03
77 | CATAAAGA | -0.0483 ± 0.0071
78 | AGCACCAC | 0.0591 ± 0.021
79 | TCAGTACA | -0.134 ± 0.012
80 | GCCGTGCC | -0.0405 ± 0.00037
81 | AATACCGT | -0.0892 ± 0.048
82 | CTCTGACA | 0.233 ± 0.019
83 | ATGTTCCC | -0.1414 ± 0.00052
84 | AACTGCAA | -0.103 ± 0.028
85 | CCCCGTCA | 0.245 ± 0.0076
86 | ACCCCTAG | -0.117 ± 0.067
87 | ACGTATAA | -0.135 ± 0.027
88 | ATTCCAGC | -0.127 ± 0.044
89 | AGTCTTCC | -0.178 ± 0.0065
90 | CGGATGCA | -0.114 ± 0.0027
91 | GGTGAGAC | 0.3819 ± 0.0012
92 | GAATTTGC | 0.161 ± 0.00052
93 | AGGAAAGC | -0.18 ± 0.0045
94 | ACTAAAGT | -0.0358 ± 0.015
